# Test results published in article PMC4336329 (PLoS ONE, 2015).
# Screen size: about 310,000 compounds; about 14,000 (4.5%) showed an effect of 50% or more. The effect is printed as a negative number. Some of the results follow.
# Molecular target: human ether-à-go-go-related gene (hERG) potassium channel (human, UniProt Q12809)
# Assay: primary screen, population patch clamp on CHO cells stably expressing hERG
# 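Note: peak tail current of the secondary pulse compared with the same well before compound.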
# human ether-à-go-go-related gene (hERG) potassium channel, sequence (Q12809 whole entry, looked up): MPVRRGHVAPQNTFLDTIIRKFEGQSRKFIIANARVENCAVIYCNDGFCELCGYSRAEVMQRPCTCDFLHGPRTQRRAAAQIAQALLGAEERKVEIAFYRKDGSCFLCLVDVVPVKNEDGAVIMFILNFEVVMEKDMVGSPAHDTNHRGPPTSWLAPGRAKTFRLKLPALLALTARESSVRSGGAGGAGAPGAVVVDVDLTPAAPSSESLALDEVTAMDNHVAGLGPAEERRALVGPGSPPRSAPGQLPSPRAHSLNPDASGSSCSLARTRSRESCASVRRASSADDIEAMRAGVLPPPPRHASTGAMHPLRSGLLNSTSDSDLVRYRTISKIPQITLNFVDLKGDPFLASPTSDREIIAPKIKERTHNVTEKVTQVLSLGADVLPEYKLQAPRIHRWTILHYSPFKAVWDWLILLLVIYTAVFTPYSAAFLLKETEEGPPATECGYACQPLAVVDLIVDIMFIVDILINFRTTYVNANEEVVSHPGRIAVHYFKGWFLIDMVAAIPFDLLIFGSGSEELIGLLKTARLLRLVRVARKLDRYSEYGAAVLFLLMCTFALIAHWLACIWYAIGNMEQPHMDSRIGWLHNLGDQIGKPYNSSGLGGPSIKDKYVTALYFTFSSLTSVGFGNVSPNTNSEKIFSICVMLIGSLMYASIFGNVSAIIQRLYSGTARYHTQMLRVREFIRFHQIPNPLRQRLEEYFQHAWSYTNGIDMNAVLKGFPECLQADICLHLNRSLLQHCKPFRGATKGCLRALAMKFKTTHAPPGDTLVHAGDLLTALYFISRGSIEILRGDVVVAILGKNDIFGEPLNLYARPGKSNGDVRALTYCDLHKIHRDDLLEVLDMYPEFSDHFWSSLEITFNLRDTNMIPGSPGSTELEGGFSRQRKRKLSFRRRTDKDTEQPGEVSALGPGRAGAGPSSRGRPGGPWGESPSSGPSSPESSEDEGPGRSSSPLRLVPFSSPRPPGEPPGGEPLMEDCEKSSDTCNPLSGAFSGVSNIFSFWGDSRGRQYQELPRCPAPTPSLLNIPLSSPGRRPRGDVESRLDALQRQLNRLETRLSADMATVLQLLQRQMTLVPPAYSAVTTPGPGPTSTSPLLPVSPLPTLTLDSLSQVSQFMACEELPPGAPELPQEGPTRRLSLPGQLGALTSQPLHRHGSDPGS
row,Compound,"hERG current change (%, negative = inhibition) at 10uM"
1,CC(C)CNC(=O)COC(=O)c1ccccc1SCC(=O)NCC(C)C,2.44%
2,Cn1cccc1CC(=O)N/N=C/C=C/c1ccco1,9.32%
3,COc1ccccc1NC(=O)CSc1nnnn1-c1ccc2c(c1)OCO2,-16.2%
4,CCOc1cc(/C=N/NC(=O)C(=O)NCc2ccc3c(c2)OCO3)ccc1OCC(=O)N1CCOCC1,-1.21%
5,CSC1=NCCN1C(=O)c1ccc(S(=O)(=O)N2CCOCC2)cc1,13.4%
6,Cc1cccc(OC(=O)C2C(c3ccccc3)C(C(=O)O)C2c2ccccc2)c1 (centres unmarked),-2.37%
7,COc1ccc(C(=O)O)cc1S(=O)(=O)NCCc1ccccn1,4.77%
8,Cc1sc2ncnc(NCCCO)c2c1C,5.08%
9,COc1ccc2[nH]c(CN3CCN(C(C)C)C(CCO)C3)c(C)c2c1 (centres unmarked),-10.6%
10,O=C(NC1CCCCC1)c1ccc2c(=O)n(CC3CCCO3)c(=O)[nH]c2c1 (centres unmarked),5.86%
11,COc1cc(OC)cc(C(=O)NCC(=O)OCC(=O)N2CC(C)CC(C)C2)c1 (centres unmarked),3.72%
12,CCCc1nn2c(=O)cc(CSCC(=O)Nc3cccc(OC)c3)nc2s1,12.8%
13,CN(C)CCNC(=O)C(=O)NCC1OCCN1S(=O)(=O)c1ccc([N+](=O)[O-])cc1 (centres unmarked),-12.3%
14,CN(Cc1ccccc1)c1ccc([N+](=O)[O-])cc1C(=O)O,17.5%
15,COC(=O)Nc1ccc([N+](=O)[O-])cc1OC,-1.3%
16,O=C(CSc1ccc2ccccc2c1Br)Nc1cccc(S(=O)(=O)NC2=NCCCCC2)c1,5.83%
17,CC(C)(C)C(O)C(Oc1ccc(Cl)cc1)n1cncn1 (centres unmarked),-0.787%
18,CCN(Cc1ccccc1)C1CCN(Cc2ccc(SC)cc2)CC1.O=C(O)C(=O)O,-69.3%
19,COc1ccc(-c2ncc(CN3CCC(CO)(Cc4cccc(OC)c4)CC3)cn2)cc1,-4.79%
20,O=C(CNCc1ccccc1Cl)Nc1ccc(C(=O)N2CCCCC2)cc1.O=C(O)C(=O)O,7.9%
21,CCCCN(CCCC)CCCN1CC(=O)N2[C@@H](Cc3c([nH]c4ccccc34)C2(C)C)C1=O,-73.2%
22,Cc1nc(Cl)c(C(=O)Nc2cccc(F)c2)c(C)c1Cl,-5.95%

row,Compound,"hERG current change (%, negative = inhibition) at 10uM"
1,N#Cc1c(-c2ccc(F)cc2)c2c([nH]c1=O)-c1ccccc1OC2,13.7%
2,CCCCC(C(=O)NC1CCCC1)N(C(=O)c1snc(C(N)=O)c1N)c1ccc(C)cc1 (centres unmarked),24.1%
3,O=C(O)CCn1ccc2cc(S(=O)(=O)N3CCCCCC3)ccc21,12.5%
4,Cc1noc(C(F)(F)F)c1C(=O)NNC(=O)c1ccccc1,9.91%
5,CCc1cc2cc(C)ccc2nc1SCC(=O)NC1CCCC1,-4.58%
6,CCOC(=O)c1c(C2CC2)csc1NC(=O)COC(=O)c1cc(OC)c(OC)cc1[N+](=O)[O-],15.1%
7,Cc1cc(C)cc(C(=O)NC(=S)Nc2ccc(-c3cc4ccccc4oc3=O)cc2)c1,5.88%
8,O=C(NCCc1ccccc1)C(=O)NCC1OCCN1S(=O)(=O)c1cc(F)ccc1F (centres unmarked),-36.7%
9,Cc1cc(NNC(=O)Nc2cccc(Cl)c2)nc2c1c(C)nn2C,3.56%
10,COc1ccc(-c2cc(C(=O)NCC(C)C)no2)cc1,-2.68%
11,CCOC(=O)C1(Cc2cccc(OC)c2)CCN(Cc2cccc3c2OCO3)CC1,-39.4%
12,O=C(NCC1CCCO1)c1ccc2c(c1)C(=O)N(c1cccc([N+](=O)[O-])c1)C2=O (centres unmarked),16.8%
13,COc1ccc(NC(=O)Nc2cccs2)cc1OC,7.26%
14,COC(=O)CNC(=O)CN(c1ccc(OC)cc1OC)S(=O)(=O)c1ccccc1,13.4%
15,COC(=O)C(NC(=O)c1ccccc1)(Nc1nc(C)cs1)C(F)(F)F (centres unmarked),17.9%
16,O=C(/C(=C/c1cccc(Cl)c1)c1nc2ccccc2[nH]1)c1ccccc1,10.7%
17,COc1cc(C(=O)NC2CC3CCCC(C2)N3Cc2ccccc2)cc(OC)c1OC (centres unmarked),8.89%
18,Cc1ccc(C2CC(C(F)F)n3ncc(C(=O)Nc4c(C)nn(Cc5c(F)cccc5Cl)c4C)c3N2)cc1 (centres unmarked),8.9%
19,O=C(O)CCC(=O)NNC(=O)COc1cccc(Cl)c1,2.84%
20,O=C(Nc1ccccc1C1CC1)c1cccs1,-0.689%
21,c1ccc(Cn2ncc3c(N4CCN(C(c5ccccc5)c5ccccc5)CC4)ncnc32)cc1,31.1%
22,Cc1ccc(S(=O)(=O)N/N=C/c2ccc(C#N)cc2)cc1,14.5%
